# According to the supplement of paper PMC3334620:
# Whole data set: some 33,000 sequences, median “E-score (-0.5 to 0.5)” near -0.036, cut for the highest 2% near 0.37. Some of the results follow.
# Target: T1, Yer064c (UniProt P40041)
# T1 sequence: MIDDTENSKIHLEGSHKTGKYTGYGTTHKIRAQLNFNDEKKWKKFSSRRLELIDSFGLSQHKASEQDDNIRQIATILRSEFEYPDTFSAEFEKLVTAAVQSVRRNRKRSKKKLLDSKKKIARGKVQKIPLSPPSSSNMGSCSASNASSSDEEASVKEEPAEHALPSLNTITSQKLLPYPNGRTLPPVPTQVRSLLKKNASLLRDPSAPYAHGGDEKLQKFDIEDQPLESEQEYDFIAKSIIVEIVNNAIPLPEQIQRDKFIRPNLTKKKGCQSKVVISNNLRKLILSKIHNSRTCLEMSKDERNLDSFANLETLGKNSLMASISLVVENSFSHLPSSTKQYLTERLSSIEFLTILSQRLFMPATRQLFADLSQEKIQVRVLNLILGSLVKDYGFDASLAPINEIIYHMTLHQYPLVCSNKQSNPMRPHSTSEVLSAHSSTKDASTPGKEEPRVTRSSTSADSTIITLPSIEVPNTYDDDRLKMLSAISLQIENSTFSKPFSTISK
# Assay: PBM E-score (8-mer binding enrichment) (E-score (-0.5 to 0.5)); higher = stronger / more preferred TF binding; most listed sequences are background and not binding sites
# Settings: protein concentration: 200 nM; construct: GST-full length
# Procedure: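 Universal 'all 10-mer' protein binding microarrays (Agilent AMADID 015681) probed with GST-tagged S. cerevisiae TFs (full-length or DBD) made by in vitro transcription/translation (PURExpress), about 100-200 nM. Bound TF was detected with fluorescent anti-GST. Each ungapped 8-mer (which stands for itself and its reverse complement) is scored by the PBM enrichment score (E-score), a modified Wilcoxon-Mann-Whitney statistic from -0.5 to +0.5, computed with the Universal PBM Analysis Suite. Scale: above 0.35 generally sequence-specific binding.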
row,Sequence,PBM E-score
1,CAACGAAA,0.131
2,ACGGGAGG,-0.16
3,TCTTACAA,0.106
4,ATTAGGAC,0.131
5,CGGCCCTA,-0.156
6,GCACCAGC,-0.0846
7,GCCGCTCA,-0.21
8,GTAAACTA,0.0929
9,GTGTTCCA,0.00081
10,CCAAGTTC,-0.126
11,GTCACCTA,0.0872
12,GTCAGTCA,0.451
13,CTGTATAC,-0.112
14,ACGATTGC,0.0745
15,ACTTAATC,0.354
16,GGTATCAC,0.0109
17,GGCATCAC,-0.269
18,ACAGATAC,-0.0982
19,ATACACAT,0.198
20,GTACAGCA,-0.0833
21,AATTCGGT,0.107
22,ACCTTAAA,0.0208
23,AGCCTAGG,-0.247
24,AGGTTTTC,-0.189
25,GAATAATA,-0.0836

row,Sequence,PBM E-score
1,ACAAGGAT,0.0163
2,GACGGTTA,-0.15
3,CTGGTGAA,-0.176
4,CTACGTAC,0.143
5,ACGGAACC,-0.0612
6,CATTATCG,0.00113
7,ATCGGTCA,-0.0592
8,ATAAAAAG,0.144
9,GGGAATAA,-0.128
10,AAAGCGAC,0.0677
11,CCTATACA,0.0007
12,ACGACCCG,-0.249
13,ACGGGGGA,-0.202
14,CCATCGCC,-0.148
15,CACGGTGC,-0.282
16,GGATTTGA,0.0416
17,CGTCCCCA,-0.283
18,CCGCTATC,-0.21
19,AAAGCACT,0.07
20,AATACGCC,-0.0474
21,CTCTGCAC,-0.0711
22,GCTGGCCC,-0.284
23,CTTTACAC,0.157
24,AAGCGTCC,-0.0884
25,CAGCAGAG,-0.112

row,Sequence,PBM E-score
1,AGATATGC,-0.038
2,CGCTAAAG,-0.00634
3,AAAAGTCA,0.374
4,AAGGTACA,-0.0142
5,CAAAGAGA,-0.0905
6,ACTTGTGC,0.0157
7,TCGTTGAA,0.0389
8,AAATCCTC,-0.175
9,ATAACTCC,-0.106
10,CATATACA,0.175
11,CTAGGTAC,0.0158
12,GGATGCCC,-0.344
13,ACCGAGCT,-0.0669
14,CATCCCAG,-0.0821
15,CGCAGACA,-0.117
16,CATAGTGA,0.145
17,ATGGTCAA,0.13
18,ATATTCCA,0.0448
19,CTGCACCC,-0.223
20,CTATTTTC,-0.0489
21,ATGACGGC,-0.125
22,CGAGGAAA,-0.223
23,GCGCTGAC,0.109
24,CTAATTCC,0.092
25,AGGCGCAT,-0.155

row,Sequence,PBM E-score
1,AGTCACGG,0.469
2,CACACGCC,0.00407
3,CGCTTTGC,-0.0726
4,GTCTTCTA,0.169
5,CAAGCGCG,-0.0964
6,AGAAAGGG,-0.25
7,GGCTAATA,-0.00286
8,ACAAGCTG,-0.0827
9,CGAGATCC,-0.198
10,AGGAGGTG,-0.23
11,ATCGAGAA,0.00256
12,CATGGTCA,0.139
13,GCGTAGCC,0.074
14,CACCTAAA,0.0738
15,AAGCAGTA,-0.168
16,CTGGCCGA,-0.131
17,ACAATGGC,-0.146
18,GTACTGAA,0.0498
19,AGACTTGC,-0.0824
20,CGGATCCC,-0.258
21,CTGGCAGC,-0.215
22,ACGCGTCC,-0.12
23,AGCATTTA,-0.1
24,CAAAATCG,0.0647
25,GATTACCC,0.303

row,Sequence,PBM E-score
1,GATAGGCC,-0.339
2,ACGTCCCG,-0.231
3,GACCCGAA,-0.0744
4,CCTAAGGC,-0.3
5,AGTTCTGG,0.0591
6,CAATCATC,0.422
7,GCGAGACA,0.078
8,GATTCGCA,0.24
9,ACCATGCA,-0.0917
10,CAATCATG,0.369
11,AAGCCCAC,-0.14
12,CTTCGCCA,-0.0406
13,ACCGCCAT,-0.0297
14,CAATAATA,0.0325
15,CCCAAACC,-0.17
16,CAGCCTTA,0.0218
17,AAGTGGAA,-0.0369
18,CGAACCTC,0.0376
19,ACTGGGCC,-0.0542
20,AACGGTGC,-0.101
21,AGCACCGC,-0.275
22,AGCTGAAG,-0.154
23,AGGTGTTG,-0.0714
24,TAGAAGCA,-0.0187
25,GGAGTGAA,0.00813

row,Sequence,PBM E-score
1,GTGTCGGA,-0.155
2,TCATTCAA,0.155
3,ACCGCACC,-0.0669
4,AACCATAA,0.214
5,CTGAGGGA,-0.0863
6,GCAGTTTA,-0.0332
7,GTACGCAA,-0.121
8,CCCAAGTA,-0.18
9,CCCGGCAC,-0.131
10,AATCAAGG,0.245
11,CTAGCAGA,0.0408
12,GGGACCTA,-0.278
13,AGAGTCTA,0.158
14,CGCACACG,-0.0897
15,ATTGTGAC,0.224
16,GTCAAGAA,0.127
17,ATTTAAAA,0.0812
18,CCCACGAA,0.00666
19,CTTAGGAC,0.0418
20,AGTGTTTG,0.0126
21,TACTAGCA,0.0217
22,TCCAGTAA,-0.0578
23,CTTCTCGC,-0.209
24,CGGCTGAC,0.165
25,AGCTACAC,0.0599

row,Sequence,PBM E-score
1,AGCGAACG,-0.0737
2,GATACAGA,-0.0679
3,ACGAATCG,0.136
4,CGGTTGCA,-0.0928
5,CGGAGCCG,-0.0548
6,GATACCTA,0.0265
7,ATCATGAG,0.34
8,CGTTTCTA,-0.0262
9,ATTTCGCC,-0.0382
10,CATGCCAG,-0.041
11,GAAGGTGC,-0.207
12,CGCTTAGA,-0.0803
13,GTTCTCTA,-0.0867
14,CATCGCCA,-0.0179
15,GATATCTA,0.0438
16,AAACCCTT,-0.0854
17,CCAAGATA,0.0362
18,AACTGGCC,-0.17
19,ACGATGTC,0.0538
20,AGCGTTAT,-0.258
21,TCGATCGA,0.313
22,ACATTTAG,-0.11
